Results: the supplement of paper PMC9446081
The whole screen tested about 39,000 compounds, of which about 220 (0.56%) showed activity. The list shows a part of the results.

tested on: Escherichia coli K-12 BW25113; assay: relative growth (OD600 normalised to plate interquartile mean) (fraction); higher = less growth inhibition, active = 0.2 or less; conditions: 50 µM; LB; incubation time: overnight (16-24 h)
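Note: static incubation at 37 °C against the wild-type strain, values averaged over two biological replicates.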

Row | SMILES | relative growth
1 | CCCN(C)C[C@@H]1OCCCC[C@H](C)Oc2ccc(NC(=O)C3CCCCC3)cc2C(=O)N([C@H](C)CO)C[C@@H]1C | inactive: 0.973
2 | CC(=O)NS(=O)(=O)c1ccc(N)cc1 | inactive: 1.12
3 | Cc1noc(C)c1NC(=O)N(C)C[C@H]1Oc2cc(C#CCN(C)C)ccc2S(=O)(=O)N([C@@H](C)CO)C[C@@H]1C | inactive: 0.979
4 | Cc1[nH]c(=O)[nH]c(=O)c1S(=O)(=O)N1CCN(c2ccccc2)CC1 | inactive: 0.795
5 | CCNC(=O)C[C@@H]1C=C[C@H](NC(=O)C2CC2)[C@@H](CO)O1 | inactive: 0.897
6 | C[C@@H]1CCCCO[C@@H](CN(C)C(=O)Nc2ccccc2)[C@H](C)CN([C@H](C)CO)C(=O)c2cc(NC(=O)CCC(F)(F)F)ccc2O1 | inactive: 1
7 | C[C@@H]1CN([C@@H](C)CO)C(=O)Cc2cc(NC(=O)C3CCCCC3)ccc2O[C@@H]1CN(C)Cc1ccc(C(F)(F)F)cc1 | inactive: 1.03
8 | C[C@@H]1CN([C@@H](C)CO)C(=O)Cc2cc(NC(=O)Cn3cnnn3)ccc2O[C@@H]1CN(C)S(=O)(=O)c1ccc(F)cc1 | inactive: 0.977
9 | C[C@@H]1CN([C@H](C)CO)S(=O)(=O)c2ccc(C#C[C@@H](C)O)cc2O[C@@H]1CN(C)C(=O)c1ccncc1 | inactive: 1.01
10 | COCC#Cc1cnc2c(c1)C(=O)N([C@H](C)CO)C[C@@H](C)[C@@H](CN(C)C(=O)Nc1cc(F)ccc1F)O2 | inactive: 0.985
11 | C[C@H]1CN([C@@H](C)CO)C(=O)c2cc(NC(=O)Nc3ccc4c(c3)OCO4)ccc2O[C@H]1CN(C)C(=O)Nc1ccc(C(F)(F)F)cc1 | inactive: 0.997
12 | C[C@@H]1CN([C@@H](C)CO)C(=O)c2cccc(NC(=O)Nc3ccc(F)cc3)c2O[C@H]1CN(C)CC1CCCCC1 | inactive: 0.919
13 | CN1C(CCl)Nc2cc(Cl)c(S(N)(=O)=O)cc2S1(=O)=O (stereo unspecified) | inactive: 0.971
14 | CO[C@H]1CN(C)C(=O)c2ccc(NS(C)(=O)=O)cc2OC[C@@H](C)N(C(=O)C2CCOCC2)C[C@H]1C | inactive: 1.02
15 | C[C@H]1CN([C@@H](C)CO)C(=O)c2cc(NC(=O)C3CC3)ccc2O[C@@H]1CN(C)C(=O)NC1CCCCC1 | inactive: 1.02
16 | COc1ccc(NC(=O)N(C)C[C@@H]2OCCCC[C@H](C)Oc3ccc(NC(=O)CCC(F)(F)F)cc3C(=O)N([C@@H](C)CO)C[C@@H]2C)cc1 | inactive: 1
17 | COc1ccccc1S(=O)(=O)N[C@H]1C=C[C@H](CC(=O)N2CCOCC2)O[C@@H]1CO | inactive: 0.979
18 | C[C@@H]1CN([C@@H](C)CO)C(=O)c2cccc(NC(=O)Nc3ccc(C(F)(F)F)cc3)c2O[C@@H]1CN(C)Cc1ccncc1 | inactive: 0.937
19 | C[C@@H]1CCCCO[C@H](CN(C)S(=O)(=O)c2ccc(Cl)cc2)[C@@H](C)CN([C@@H](C)CO)C(=O)c2cc(NS(=O)(=O)c3ccccc3)ccc2O1 | inactive: 1.02
20 | Cc1ccc(S(=O)(=O)Nc2cccc3c2O[C@@H](CN(C)Cc2ccc(Cl)c(Cl)c2)[C@H](C)CN([C@H](C)CO)C3=O)cc1 | inactive: 1.03
21 | CC/C(=C\C(=O)O)c1ccccc1 | inactive: 0.987

Row | SMILES | relative growth
22 | Cc1ncc([N+](=O)[O-])n1C[C@@H](CN1CCOCC1)OP(=O)(O)O | inactive: 1.01
23 | CC(C)(C)NCC(O)c1cc(O)cc(O)c1.O=S(=O)(O)O (stereo unspecified) | inactive: 0.965
24 | Cc1cc(C)nc(NS(=O)(=O)c2ccc(NC(=O)c3cccn(OCc4ccc(F)cc4)c3=O)cc2)n1 | inactive: 1.04
25 | Cc1ccc(S(=O)(=O)N(C)C[C@@H]2OCCCC[C@@H](C)Oc3ccc(NC(=O)Nc4ccc(F)cc4)cc3C(=O)N([C@H](C)CO)C[C@H]2C)cc1 | inactive: 1.03
26 | C[C@@H]1CN([C@H](C)CO)C(=O)c2cc(NS(=O)(=O)c3cccs3)ccc2O[C@@H](C)CCCCO[C@@H]1CN(C)Cc1ccc2c(c1)OCO2 | inactive: 0.999
27 | CC(C)CC#Cc1ccc2c(c1)O[C@H](CN(C)C(=O)Cc1cccnc1)[C@H](C)CN([C@@H](C)CO)S2(=O)=O | inactive: 0.999
28 | C[C@H](CO)N1C[C@H](C)[C@@H](CN(C)C(=O)c2cnccn2)Oc2cc(C#CCC3CCCC3)ccc2S1(=O)=O | inactive: 1.03
29 | COc1ccc(CNC(=O)c2cc3c(c(-c4cccc(-c5cccc(C#N)c5)c4)n2)[C@H](CCO)N([S@@](=O)C(C)(C)C)C3)cc1 | inactive: 0.984
30 | C[C@H](CO)N1C[C@H](C)[C@H](CN(C)Cc2ccc(-c3ccccc3)cc2)Oc2c(NC(=O)Nc3ccc(F)cc3)cccc2C1=O | inactive: 1.02
31 | COC(=O)[C@@H]1[C@@H](CO)[C@@H]2Cn3c(ccc(-c4ccccc4)c3=O)[C@@H]2N1S(C)(=O)=O | inactive: 0.982
32 | Cc1ccc(S(=O)(=O)Nc2ccc3c(c2)C(=O)N([C@@H](C)CO)C[C@@H](C)[C@H](CN(C)S(=O)(=O)c2ccc(F)cc2)OCCCC[C@H](C)O3)cc1 | inactive: 1.05
33 | C[C@H](CO)N1C[C@H](C)[C@H](CN(C)Cc2ccc(C(=O)O)cc2)Oc2ccc(NC(=O)c3ccncc3)cc2CC1=O | inactive: 0.985
34 | CCCCCCCCCCCCCCCC(=O)O[C@@H]1[C@@H](O)[C@@H](O)[C@@H]([C@H](NC(=O)[C@@H]2C[C@@H](CCC)CN2C)[C@H](C)Cl)O[C@@H]1SC | inactive: 1.01
35 | C[C@@]1(c2ccc3c(c2)OCCO3)NC(=O)NC1=O | inactive: 1
36 | CC(C)(C)[S@](=O)N1Cc2cc(C(=O)NCc3ccccc3F)nc(-c3cccc(-c4cccnc4)c3)c2[C@@H]1CCO | inactive: 0.977
37 | C[C@@H]1CN([C@@H](C)CO)C(=O)Cc2cc(NC(=O)Nc3ccc4c(c3)OCO4)ccc2O[C@@H]1CN(C)S(=O)(=O)c1cn(C)cn1 | inactive: 1
38 | O=C(NCCCN1CCOCC1)[C@H]1[C@H](CO)[C@H]2Cn3c(cccc3=O)[C@@H]1N2C(=O)C1CCCC1 | inactive: 1
39 | Cc1noc(C)c1S(=O)(=O)Nc1ccc2c(c1)CC(=O)N([C@@H](C)CO)C[C@@H](C)[C@H](CN(C)C(=O)Nc1ccc3c(c1)OCO3)O2 | inactive: 1.02
40 | C[C@H](CO)N1C[C@H](C)[C@H](CN(C)Cc2ccccn2)Oc2cc(C#CCN(C)C)ccc2S1(=O)=O | inactive: 1
41 | Cc1ccc(NC(=O)[C@H]2CCCN(C(=O)c3c(C)cccc3F)[C@H]2c2ccc(NC3CCCC3)cc2)cc1C(F)(F)F | inactive: 1.03
42 | CC(O)C1C(=O)N2C(C(=O)[O-])=C(SC3Cn4cnc[n+]4C3)C(C)C12 (stereo unspecified) | inactive: 0.307

Row | SMILES | relative growth
43 | CN1C(=O)c2cc(NC(=O)C3CCOCC3)ccc2OC[C@H]2O[C@H](CC(=O)NCc3ccccc3F)CC[C@@H]21 | inactive: 1.05
44 | COc1ccc(S(=O)(=O)N(C)C[C@H]2OCCCC[C@H](C)Oc3ccc(NS(C)(=O)=O)cc3C(=O)N([C@H](C)CO)C[C@H]2C)cc1 | inactive: 1.02
45 | COc1ccc2c3c(n(c2c1)C)[C@@H](CO)N(C[C@]13CN(CC2CCOCC2)C1)C(=O)c1ccc(cc1)F | inactive: 1
46 | COc1ccc(S(=O)(=O)Nc2ccc3c(c2)C(=O)N([C@@H](C)CO)C[C@H](C)[C@H](CN(C)Cc2ccccc2)OCCCC[C@@H](C)O3)cc1 | inactive: 1.02
47 | C=CCNC(=O)[C@H]1[C@@H]2C(=O)O[C@@H](c3ccccc3)[C@@H](c3ccccc3)N2[C@@H](c2ccccc2OCCO)[C@]12C(=O)N(C(=O)OCCOC)c1ccc(C#Cc3ccc(OC)cc3)cc12 | inactive: 1.08
48 | COc1ccc(CN(C)C[C@H]2Oc3ccc(NS(C)(=O)=O)cc3C(=O)N([C@@H](C)CO)C[C@H]2C)cc1 | inactive: 0.984
49 | C=CCOC(=O)[C@@H]1[C@H]2C(=O)O[C@H](c3ccccc3)[C@H](c3ccccc3)N2[C@H](c2ccc(OCCOC(=O)[C@H]3C[C@H]4C(=O)N5CCC[C@H]5C(=O)N4[C@H]3c3ccc(O)cc3)cc2)[C@@]12C(=O)Nc1ccc(I)cc12 | inactive: 1.04
50 | C[C@H](O)C#Cc1cnc2c(c1)C(=O)N([C@H](C)CO)C[C@@H](C)[C@H](CN(C)C(=O)Nc1ccc(C(F)(F)F)cc1)O2 | inactive: 0.993
51 | C=c1ccc(C)cc1=C1NN=C(NC(=O)c2ccc(S(=O)(=O)N(CCOC)CCOC)cc2)O1 | inactive: 0.998
52 | O=C(N1CCOCC1)C(F)(F)F | inactive: 0.999
53 | C[C@@H]1CCCCO[C@@H](CN(C)Cc2ccc(C(F)(F)F)cc2)[C@H](C)CN([C@H](C)CO)C(=O)c2cc(N(C)C)ccc2O1 | inactive: 1
54 | COc1c(C)cc(-c2cc3c(c(CCc4ccccc4)n2)[Si](C(C)C)(C(C)C)O[C@H]3c2ccccc2)cc1C | inactive: 0.983
55 | N[C@H](Cc1cc(I)c(Oc2ccc(O)c(I)c2)c(I)c1)C(=O)O | inactive: 0.993
56 | C[C@H]1CN([C@@H](C)CO)C(=O)c2cc(NC(=O)Cn3cnnn3)ccc2O[C@@H]1CN(C)Cc1ccncc1 | inactive: 1.02
57 | Cc1noc(C)c1NC(=O)N(C)C[C@@H]1OCCCC[C@H](C)Oc2ccc(NS(=O)(=O)c3ccc(F)cc3)cc2C(=O)N([C@@H](C)CO)C[C@@H]1C | inactive: 0.992
58 | O=C(CCCCC(=O)N/N=C/[C@H](O)[C@@H](O)[C@H](O)CO)NO | inactive: 1.01
59 | CCCCNC(=O)N1CCN(C)CC1 | inactive: 1.01
60 | CCS(=O)(=O)Nc1ccc2c(c1)C(=O)N(C)[C@@H]1CC[C@@H](CC(=O)N3CCN(C)CC3)O[C@H]1CO2 | inactive: 1.01
61 | C[C@@H]1CN([C@H](C)CO)C(=O)c2cc(NC(=O)Cn3cnnn3)ccc2O[C@H]1CN(C)Cc1ccc(Oc2ccccc2)cc1 | inactive: 1.01
